From PubChem BioAssay (NCATS)
The shares of active, inactive and inconclusive entries below differ from those in the screen. Where a call stands in place of a potency, no number is given. Potencies beside an inconclusive call are fits to weak or partial responses and may not hold up. Calls of active or inactive are those of the source. Calls follow the shape of the dose curve; as a rule, active = well fitted activation curve with a large enough effect in the main read-out, with a control signal flat (not every such curve was filed as active); inconclusive = small, poorly fitted or top-dose-only effect, or effect the other way, or a change in a side signal; inactive = flat fitted curve, though single readings scatter.

target: 3',5'-cyclic-AMP phosphodiesterase 4B (Homo sapiens) (UniProt Q07343); assay: qHTS Assay for Inhibitors of PDE-IV (AID 607); settings: HEK293 ACTOne CNG channel cells, membrane potential fluorescence; series mostly up to 22.9 µM
UniProt Q07343, sequence (Q07343 whole entry, looked up): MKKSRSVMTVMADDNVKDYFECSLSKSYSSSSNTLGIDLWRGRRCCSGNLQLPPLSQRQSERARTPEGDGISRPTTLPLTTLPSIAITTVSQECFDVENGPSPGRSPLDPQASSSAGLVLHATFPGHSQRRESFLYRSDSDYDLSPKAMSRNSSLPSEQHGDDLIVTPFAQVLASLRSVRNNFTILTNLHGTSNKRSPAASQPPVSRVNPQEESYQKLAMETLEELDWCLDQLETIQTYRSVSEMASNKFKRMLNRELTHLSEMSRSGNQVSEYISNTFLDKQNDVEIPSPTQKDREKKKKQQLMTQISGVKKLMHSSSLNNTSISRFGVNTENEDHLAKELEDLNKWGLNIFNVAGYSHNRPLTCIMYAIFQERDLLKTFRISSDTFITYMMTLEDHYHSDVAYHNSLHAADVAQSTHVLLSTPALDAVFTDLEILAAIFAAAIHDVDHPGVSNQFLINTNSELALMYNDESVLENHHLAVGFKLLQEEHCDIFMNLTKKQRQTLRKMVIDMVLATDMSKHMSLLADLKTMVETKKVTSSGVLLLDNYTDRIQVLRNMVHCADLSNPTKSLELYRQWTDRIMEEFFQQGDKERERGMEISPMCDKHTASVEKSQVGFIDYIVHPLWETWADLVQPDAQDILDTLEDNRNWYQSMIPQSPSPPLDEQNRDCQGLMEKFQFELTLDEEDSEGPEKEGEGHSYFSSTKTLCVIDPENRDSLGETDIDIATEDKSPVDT
Procedure, shortened: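 The readout is membrane depolarisation from a cAMP-sensing CNG channel, detected with a potential dye at ex 535/em 590. Cells were HEK293-derived (endogenous PDE-IV) at 1000 cells/well, titrated up to 22.9 uM final.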
Potency is read from the fitted curve at half-maximal effect; tags tell the direction and shape of the fitted curve.

| Compound | Potency |
| --- | --- |
| Cc1nn(C)c(Cl)c1S(=O)(=O)N[C@@H](c1ccccc1)[C@]1(C)C[C@H]1[C@@H](C)C(=O)Nc1ccc2ccccc2c1 | inactive |
| Cc1nc2cnc(N3CCOCC3)nc2n(C[C@H]2CCCO2)c1=O | inconclusive: 10 µM [activator, partial curve] |
| O=C(O)c1ccc(/C=N\N=C2c3ccccc3-c3ccccc32)cc1 | inactive |
| CCC/C=C(\CCC)C(NC(=O)c1cccs1)c1ccc(C(=O)OC)cc1 (configuration not stated) | inconclusive: 5.01 µM [rising, partial curve] |
| COC(=O)[C@H](C)[C@@H]1C[C@@]1(C)[C@@H](NC(=O)OCc1ccccc1)c1ccccc1 | inconclusive: 6.31 µM [rising, partial curve] |
| C=C1C(=O)C=C2CN(C(=O)c3ccccc3)[C@@](Cc3ccc(F)cc3)(C(=O)OC)[C@@H]12 | inconclusive: 1.26 µM [rising, single point] |
| COc1ccccc1-c1nccc(-n2ccnc2)n1 | inactive |
| CCCCN(c1ccccc1)c1ncnc2c1cnn2C | inactive |
| COC(=O)N1CCC[C@@]2(CCN(Cc3cc(C(F)(F)F)cc(C(F)(F)F)c3)C2)C1 | inactive |
| COCCn1c(=O)c(-c2cccc(C#N)c2)nc2cnc(N(C)C)nc21 | inactive |
| COC(=O)C1(Cc2ccccc2)C2c3cc(C(=O)N4CCCC4)n(Cc4ccc(OC(F)(F)F)cc4)c3CC2CN1C(=O)c1ccccc1 (configuration not stated) | inactive |
| O=c1c(CCc2ccccc2)nc2cnc(N3CCOCC3)nc2n1Cc1ccc(F)cc1 | inconclusive: 6.31 µM [activator, partial curve, poor fit] |
